# Source: PubChem BioAssay AID485344 (National Center for Advancing Translational Sciences (NCATS), 2010)
# The whole screen tested about 340,000 compounds, of which about 6,900 (2%) were called active. Cut-off read from the data, not from the text of the source: active = inhibition above about 30%; inactive = below that, where a call was filed. This is a selection; strong and weak results do not stand in their true shares. Where no call is shown, the source filed none.
# Biological target: D(2) dopamine receptor (Homo sapiens) (UniProt P14416)
# Sequence of UniProt P14416 (P14416 whole entry, looked up): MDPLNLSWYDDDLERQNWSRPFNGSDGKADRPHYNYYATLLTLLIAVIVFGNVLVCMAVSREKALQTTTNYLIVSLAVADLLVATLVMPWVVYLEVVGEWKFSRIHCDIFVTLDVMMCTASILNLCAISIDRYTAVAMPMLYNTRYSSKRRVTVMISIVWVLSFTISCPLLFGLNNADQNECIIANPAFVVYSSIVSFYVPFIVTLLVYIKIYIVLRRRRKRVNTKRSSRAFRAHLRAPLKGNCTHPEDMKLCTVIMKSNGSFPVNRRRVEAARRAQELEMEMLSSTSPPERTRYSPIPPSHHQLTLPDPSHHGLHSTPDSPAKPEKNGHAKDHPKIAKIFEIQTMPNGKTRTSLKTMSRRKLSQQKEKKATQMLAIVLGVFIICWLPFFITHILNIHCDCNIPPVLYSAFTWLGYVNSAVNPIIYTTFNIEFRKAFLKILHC
# Experiment: HTS Assay for Allosteric Antagonists of the Human D2 Dopamine Receptor: Primary Screen for Antagonists; note: 0% is about no effect
# Details: HEK293 TREx D2 cells, calcium flux, dopamine EC80; at 10 µM; stronger effect = higher value
# Outline: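 Overnight-induced (tetracycline, 30 C) HEK293 T-REx cells carrying force-coupled D2 receive a no-wash calcium dye, then compound, then EC80 dopamine at 180 s; signals are read kinetically throughout.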
row,SMILES,inhibition
1,Cc1ccc(CN2CCCn3nc(C(=O)NCC(C)c4ccccc4)cc3C2=O)cc1 (stereo not given),-0.402%
2,CCc1nn(CC(=O)NCCCOC)c(=O)c2cc3ccccc3n12,16.4%
3,Cc1cc(C)c2oc(C(=O)Nc3ccc(S(=O)(=O)Nc4nccc(C)n4)cc3)cc(=O)c2c1,-12.1%
4,COc1ccccc1-c1cc(C(=O)NC(C)c2ccccc2)no1 (stereo not given),active: 60.8%
5,Cc1nnc2c3ccccc3nc(Nc3cccc(O)c3)n12,0.856%
6,CCCCOC(=O)c1ccc(Nc2nnc(-n3nc(C)cc3C)c3ccccc23)cc1,5.4%
7,CCOC(=O)c1ccc(NC(=O)c2nc(SCc3ccccc3F)ncc2Cl)cc1,-2.53%
8,COc1ccc(-c2noc(CSc3nc(N)cc(=O)[nH]3)n2)cc1OC,1.83%
9,O=C(NC1CC(=O)N(c2ccc(Cl)cc2)C1)c1ccc(S(=O)(=O)N2CCOCC2)cc1 (stereo not given),-11.6%
10,COc1ccc(-c2noc(CN(C(=O)c3cc(OC)c(OC)cc3OC)C(C)C)n2)cc1,14.3%
11,COc1cc(C2C(C(=O)Nc3ccccc3)=C(C)Nc3nnnn32)cc(OC)c1OC (stereo not given),6.6%
12,CCOc1ccc2nc(N3CCCC(C(=O)NCc4ccccc4OC)C3)sc2c1 (stereo not given),17.9%
13,CCCn1c2ccccc2c2cnn(CC(=O)NCCc3ccc(C)cc3)c(=O)c21,2.69%
14,Cc1ccc(Cl)cc1NC(=O)C1CCN(c2nc3ccccc3n3cccc23)CC1,0.723%
15,CCc1ccc(C2c3c(-c4ccccc4)n[nH]c3C(=O)N2c2ccc(C(=O)O)cc2)cc1 (stereo not given),16.5%
16,COc1cccc(-n2cc(C(=O)NCc3ccc(C)cc3)c3ccccc3c2=O)c1,7.94%
17,COc1ccc(C(=O)Nc2nc(C)c(C(C)=O)s2)cc1S(=O)(=O)N1CCOCC1,active: 30.1%
18,O=C(CSc1nccn1Cc1ccc(Cl)cc1)Nc1ccc2c(c1)OCO2,-0.0598%
19,COc1ccc(NC(=O)C2CCCN(S(=O)(=O)c3c(C)[nH]c(=O)[nH]c3=O)C2)cc1Cl (stereo not given),12.5%
20,Cc1nn(-c2ccc(N3CCOCC3)nn2)c(C)c1CCC(=O)Nc1ccc(F)cc1F,-20%

row,SMILES,inhibition
1,O=C(Nc1ccc(Cl)c(C(F)(F)F)c1)C(Cc1ccccc1)NS(=O)(=O)c1cccc2nsnc12 (stereo not given),2.02%
2,Cc1cc(C)cc(OCCSc2nc(-c3cccs3)nc3cc(=O)[nH]n23)c1,-3.13%
3,CCC(Sc1nc2ncccc2o1)C(=O)Nc1cccc(C)c1 (stereo not given),-19.4%
4,COc1ccc(-c2cc(C)no2)cc1S(=O)(=O)N1CCOc2ccc(Cl)cc21,10.9%
5,COC(=O)c1ccc2c(=O)n(CCCCCC(=O)NCc3ccc(OC)cc3)c(=O)[nH]c2c1,13.5%
6,COc1ccc(Nc2cc(C(=O)NCCCN(C)C3CCCCC3)c3ccccc3n2)c(OC)c1,-6.32%
7,COc1ccc(CCNc2nc(SCc3cccc(F)c3)nc3ccccc23)cc1OC,28.3%
8,CCC(C)NC(=O)CN1C(=O)c2cccnc2Oc2ccc(C)cc21 (stereo not given),-6.88%
9,CC(C)c1ccc(NC(=O)CN2C(=O)COc3ccc(S(=O)(=O)N4CCOCC4)cc32)cc1,21.9%
10,CCn1cc(C(=O)NCCc2ccccc2)c(=O)c2cc(S(=O)(=O)N3CCc4ccccc4C3)ccc21,-11.9%
11,CCCn1c2ccccc2c2cnn(CC(=O)NCCCN(Cc3ccccc3)C(C)C)c(=O)c21,14.3%
12,O=S(=O)(NCCc1csc2nc(-c3ccc(Cl)cc3)nn12)c1ccc2c(c1)OCCO2,5.64%
13,COc1cc(Cl)c(C)cc1NC(=O)c1nn(C)c2c1CSc1ccccc1-2,-5.82%
14,COc1ccc(CNC(=O)c2cc(-c3ccc(Cl)cc3)n[nH]2)cc1,6%
15,O=C(CCCCn1c(=O)c2ccccc2n(Cc2cccc(Cl)c2)c1=O)NCc1ccc2c(c1)OCO2,-0.504%
16,CCCN(CCC)CCNC(=O)c1nn(C)c2c1CS(=O)(=O)c1ccccc1-2,-13.9%
17,COc1ccc(C2CC(=O)N(CC(=O)Nc3ccc(C(C)=O)cc3)c3ccccc3S2)cc1OC (stereo not given),5.87%
18,CCOC(=O)c1c(C)oc2nc(C)nc(N3CCN(c4cccc(C(F)(F)F)c4)CC3)c12,4.5%
19,CCOC(=O)c1c(NC(=O)/C=C/c2ccc(Cl)cc2)sc2c1CCC(C)C2 (stereo not given),4.34%
20,COc1ccc(CCC(=O)NC2CC(=O)N(c3ccccc3)C2)cc1 (stereo not given),1.11%

row,SMILES,inhibition
1,Cc1ccc2[nH]c(CSc3nnc(NC(=O)COc4ccc(F)cc4)s3)cc(=O)c2c1,9.29%
2,Cc1ccccc1C(=O)n1nc(-c2ccco2)nc1NCc1cccs1,-9.32%
3,CC1=Nc2cc(C(=O)N3CCCCC3)ccc2Sc2ccc(C)cc21,24.4%
4,Cc1c(C(=O)NCc2ccc(OC(C)C)cc2)sc2ncnc(N(C)C3CCCCC3)c12,4.75%
5,CCCC(=O)Nc1nnc(SCc2cc(=O)n3cccc(C)c3n2)s1,-9.91%
6,COc1ccc(CNC(=O)Cn2ncc3c(=O)oc4ccc(C)cc4c32)c(OC)c1,-14.7%
7,Cc1cc(=O)n2[nH]c(NC(=O)c3cccc(Cl)c3)nc2n1,-11.7%
8,Nn1c(SCC(=O)Nc2ccc3c(c2)OCO3)nnc1C1CCCCC1,active: 31%
9,COc1ccc(N(C)S(=O)(=O)c2ccc3c(c2)n(C)c(=O)c(=O)n3C)cc1,7.95%
10,CC(C)CN(CC(C)C)S(=O)(=O)c1ccc(C(=O)Nc2sc3c(c2C(N)=O)CCN(C(C)C)C3)cc1,5.46%
11,CCOCCc1nn2c(=O)cc(COC(=O)c3ccccc3NC(=O)CC(C)C)nc2s1,16.1%
12,CCOc1ccc(-c2noc(CSc3nnc(Cc4ccccc4)n3-c3ccc(F)cc3)n2)cc1,-11%
13,COc1cccc(C(=O)Nc2c3c(nn2-c2ccc(C)cc2C)CS(=O)(=O)C3)c1OC,13.1%
14,CCN1CCOC(=O)C1CC(=O)Nc1cc(Cl)ccc1C (stereo not given),7.53%
15,CCN1CCN(CCCNC(=O)c2cnn(-c3ccc(OC)cc3)c2C2CCN(C(=O)OC(C)(C)C)CC2)CC1,-2.64%
16,C/C(=N\NC(=S)Nc1cc(S(=O)(=O)N2CCOCC2)ccc1Cl)c1ccc(N2CCOCC2)cc1,active: 34.7%
17,CCOC(=O)c1cccc(NC(=O)CC2C(=O)N(c3ccc(F)cc3)C(=O)N2Cc2cccc(OC)c2)c1 (stereo not given),14%
18,CCOC(=O)c1ccc(Nc2nc3ccccc3n3c(C)nnc23)cc1,-12.5%
19,CC1CC(=O)N(CC(=O)Nc2ccc(OC(F)(F)F)cc2)c2ccccc2S1 (stereo not given),-6.03%
20,CCCN1CCN(C(=O)Cn2ncc3c4ccccc4n(Cc4cccc(Cl)c4)c3c2=O)CC1,5.13%
